# In article PMC4336329 (PLoS ONE, 2015):
# Among all 310,000 compounds or so, about 14,000 (4.5%) showed an effect of 50% or more. Effects have a minus sign here. Some of the results follow.
# Biological target: human ether-à-go-go-related gene (hERG) potassium channel (human, UniProt Q12809)
# Assay: primary screen, population patch clamp on CHO cells stably expressing hERG
# 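Also: peak tail current of the secondary pulse compared with the same well before compound.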
# Chain of human ether-à-go-go-related gene (hERG) potassium channel (Q12809 whole entry, looked up): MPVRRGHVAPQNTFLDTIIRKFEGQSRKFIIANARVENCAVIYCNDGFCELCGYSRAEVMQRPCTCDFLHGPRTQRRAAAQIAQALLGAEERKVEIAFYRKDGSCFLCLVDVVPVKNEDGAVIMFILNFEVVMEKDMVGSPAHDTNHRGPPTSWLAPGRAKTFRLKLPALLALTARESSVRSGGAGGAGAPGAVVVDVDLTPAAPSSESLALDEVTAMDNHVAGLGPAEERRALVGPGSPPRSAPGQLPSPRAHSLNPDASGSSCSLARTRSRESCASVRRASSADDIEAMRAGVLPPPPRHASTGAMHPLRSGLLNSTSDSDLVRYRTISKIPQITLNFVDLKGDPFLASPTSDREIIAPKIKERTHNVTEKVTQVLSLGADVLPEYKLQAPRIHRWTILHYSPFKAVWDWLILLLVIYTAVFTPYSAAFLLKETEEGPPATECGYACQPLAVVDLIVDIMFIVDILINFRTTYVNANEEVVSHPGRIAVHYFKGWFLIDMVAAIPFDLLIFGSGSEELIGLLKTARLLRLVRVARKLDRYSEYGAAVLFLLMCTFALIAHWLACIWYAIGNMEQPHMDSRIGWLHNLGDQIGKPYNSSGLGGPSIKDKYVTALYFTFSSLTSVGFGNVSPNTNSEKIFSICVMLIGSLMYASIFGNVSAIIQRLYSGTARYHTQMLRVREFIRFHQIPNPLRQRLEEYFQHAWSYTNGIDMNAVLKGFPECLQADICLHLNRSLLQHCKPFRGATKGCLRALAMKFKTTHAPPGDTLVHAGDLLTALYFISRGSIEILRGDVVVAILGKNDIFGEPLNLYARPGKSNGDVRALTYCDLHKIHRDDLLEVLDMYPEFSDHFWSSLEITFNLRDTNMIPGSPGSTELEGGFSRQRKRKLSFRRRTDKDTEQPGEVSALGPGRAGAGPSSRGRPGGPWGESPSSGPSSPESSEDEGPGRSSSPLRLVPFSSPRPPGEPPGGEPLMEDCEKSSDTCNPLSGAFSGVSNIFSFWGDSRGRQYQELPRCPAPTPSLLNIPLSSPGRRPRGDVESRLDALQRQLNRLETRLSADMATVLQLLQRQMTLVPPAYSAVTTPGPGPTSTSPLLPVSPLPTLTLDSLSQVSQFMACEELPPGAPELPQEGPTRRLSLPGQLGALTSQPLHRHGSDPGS
row,SMILES,"hERG current change (%, negative = inhibition) at 10uM [%]"
1,O=C1CSC(c2cccc(O)c2)N1Cc1ccccc1 (stereo not drawn),11
2,CN(C)CCCNc1nc(N)c([N+](=O)[O-])c(NCc2ccccc2)n1,-34.5
3,O=c1[nH]c2c(c(=O)[nH]1)CCC2,17.7
4,COc1ccc(-n2ncc(C(C)NS(=O)(=O)c3cccs3)c2C)cc1 (stereo not drawn),2.48
5,CCCOc1ccc(C2CC(=O)NC2=O)cc1 (stereo not drawn),9.32
6,O=C(Cc1ccc(Cl)cc1)N/N=C/c1c(Cl)cccc1Cl,8.7
7,Cc1ccc(C)c(OCCC(=O)OCC(=O)Nc2cccc(S(=O)(=O)N3CCCC3)c2)c1,9.08
8,CN1CCN(/N=C/c2ccc(-c3ccccc3)cc2)CC1,-43
9,CC(C)OC(=O)c1ccc(N2CCN(c3ccccc3F)CC2)nc1,16
10,CC(C)CNC(=O)CC(c1ccccc1)c1c(O)ccc2ccccc12 (stereo not drawn),4.84
11,CC(=O)c1sc(NS(=O)(=O)c2ccc(C)cc2)nc1C,18.2
12,CC(C)(C)c1cc(C(=O)NCc2ccco2)ccn1,16.3
13,CC(=O)N(c1nc(CCl)cs1)c1ccc(C)cc1C,12.4
14,O=C(N/N=C/c1ccco1)c1cccc(NC(=O)c2cccc(Cl)c2)c1,-34.9
15,CC1(C(=O)NCCN2CCOCC2)C=CCN1C(=O)c1ccccc1 (stereo not drawn),3.07
16,CC(C)(C)OC(=O)NC(=NCCCc1cn(CC(=O)N2CCN(C(=O)OC(C)(C)C)CC2)nn1)NC(=O)OC(C)(C)C,5.68
17,O=C(O)C(=O)O.OCCNCCSc1ccc(Cl)cc1,-1.72
18,CCOC(=O)Cn1nnnc1C(C(C)C)N(Cc1cc2c(C)cc(C)cc2[nH]c1=O)C1CCCC1 (stereo not drawn),14.5
19,CCOc1ccccc1NC(=O)CSc1nnc(CNC(=O)c2cc(OC)c(OC)c(OC)c2)o1,-3.96

row,SMILES,"hERG current change (%, negative = inhibition) at 10uM [%]"
1,CCN1CCN(Cc2cc(Br)ccc2O)CC1,-22.7
2,CNCCOc1ccccc1C(C)(C)C.O=C(O)C(=O)O,8.04
3,COc1ccc(S(=O)NC2CCCCC2)c(OC)c1C (stereo not drawn),-2.46
4,O=C(NCc1ccccc1)C1CCCN1C(=O)Nc1ccccc1[N+](=O)[O-] (stereo not drawn),-1.32
5,Cc1c(C(=O)NCCSCc2ccccc2Cl)cccc1[N+](=O)[O-],-14.3
6,CN(C)c1ccc(C#Cc2ccc3cc(CCO)oc(=O)c3c2)cc1,5.93
7,CN(C(=O)COC(=O)/C=C/c1ccc2ccccc2n1)c1c(N)n(Cc2ccccc2)c(=O)[nH]c1=O,4.53
8,CNC(=O)NC(=O)COC(=O)CCc1nc(=O)c2ccccc2n1C,-19.2
9,O=[N+]([O-])c1cc(Br)c2nsnc2c1N1CCOCC1,-45
10,Cc1cnccc1CN(C)Cc1nc(Cc2ccccc2Cl)no1,1.88
11,C=CCN1C(=O)c2ccc(C(=O)NCC(=O)Nc3c(C)cc(C)cc3C)cc2C1=O,14
12,Cc1ccc(-c2nc(-c3ccncc3)no2)cc1,21.3
13,CS(=O)(=O)N(CC(=O)N1CCN(c2ccccc2F)CC1)c1ccc2c(c1)OCCO2,-15.2
14,N/C(=N\N=C\c1cccc([N+](=O)[O-])c1)c1nonc1N,0.273
15,COC(=O)C(C)Sc1nc2c(c(=O)[nH]c(=O)n2C)n1CCC(C)C (stereo not drawn),-24.6
16,Cc1nc2cc(CC(=O)O)ccc2o1,2.46
17,Cc1cc2c(cc1S(=O)(=O)N1CCN(c3cccc(C)c3C)CC1)OCC(=O)N2,2.67
18,CN(C)CCCN1C(=O)C(=O)/C(=C(/O)c2ccncc2)C1c1ccccc1 (stereo not drawn),-11
19,Cc1ccc(CNC(=O)[C@H](C)[C@H]2C[C@]2(C)[C@H](NC(=O)OCc2ccccc2)c2ccccc2)o1,-11.1

row,SMILES,"hERG current change (%, negative = inhibition) at 10uM [%]"
1,Cc1ccc(CCCOC(=O)C[N+]2(C)CCCC2)cc1.[I-],11.7
2,COc1cccc(NC(=O)C(NCCC(C)C)c2ccccc2)c1 (stereo not drawn),-1.13
3,CCS(=O)(=O)CCSC(=N)N.Cl,-53.3
4,CC(C)c1nc(N2CCOCC2)c(C#N)c2c1COC(C)(C)C2,9.56
5,COc1ccc(C(=O)N2CCC3(CC2)OCCO3)cc1,19
6,COC(=O)c1[nH]c2ccc(F)cc2c1NS(=O)(=O)c1ccc(OC)cc1,-0.422
7,Cl.c1cncc(CNc2ncnc3sc4c(c23)CCC4)c1,-56.2
8,CC(C)CNC(=O)c1cc(-c2ccc3c(c2)OCO3)on1,22.2
9,COc1ccccc1CNC(=O)COC(=O)c1cccc(S(=O)(=O)N2CCCCC2)c1,0.496
10,Cc1ccccc1NS(=O)(=O)c1ccc2c3c(cccc13)C(=O)N2C,-4.02
11,CCC(C)(C(=O)NC1CCCC1)N(CC1CCCO1)C(=O)c1ccc2c(c1)OCO2 (stereo not drawn),-3.35
12,CCCOC(=O)c1ccc(NC(=O)C2CCCO2)cc1 (stereo not drawn),5.07
13,CC1CN(c2ccc([N+](=O)[O-])c(NCCOc3ccccc3)c2)CC(C)N1 (stereo not drawn),-26.9
14,CCOC(=O)Nc1ccc2c(c1)N(C(=O)CN1CCN(C)CC1)c1ccccc1S2.Cl,-64.4
15,FC(F)(F)c1ccccc1NC(=S)Nn1cnnc1,13.7
16,CSc1ccccc1NC(=O)CN(C)CC(=O)Nc1ccccc1C(F)(F)F,-8.94
17,COCc1cc(OC)nc(-c2csc(C)n2)n1,20
18,COC(=O)[C@@]1(Cc2ccc(OC)cc2)[C@H]2c3cc(C(=O)N(C)C)n(Cc4ccc(OC(F)(F)F)cc4)c3C[C@H]2CN1C(=O)c1ccccc1,9.99
19,Cc1ccc(-c2ocnc2C(=O)Nc2ccccc2C(=O)N2CCCC2)cc1,-8.99
